Reference: PubChem BioAssay AID1963576 (National Center for Advancing Translational Sciences (NCATS), 2024)
Hit rate of the full screen: of about 46,000 compounds, about 60 (0.1%) were called active. Inconclusive results (about 3%) are left out. Calls follow the shape of the dose curve; as a rule, active = well fitted inhibition curve with a large enough effect; inconclusive = small, poorly fitted or top-dose-only effect; inactive = no such curve, though single readings can be large or run the other way. This is one part of the list.

assay: Primary qHTS assay for Inhibitors of ovarian cancer metastasis using an organotypic tumor microenvironment (TME) model.; also: nearly all actives have a fitted effect of over 65% in size;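 as to activity change, negative = inhibition: plate controls were DMSO wells for no effect and tomatine positive control wells for full effect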; settings: SKOV3ip1-GFP adhesion/invasion on 3D omental model, fluorescence; series mostly up to 45.8 µM; activity change, negative = inhibition: at the top concentration
Summary of the method: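 qHTS, 4-pt dose (0.36-46 umol/L); SKOV3ip1-GFP, 1,200 cells/well, no FBS; primary omental fibroblast/mesothelial co-culture 48 h pre-grown; 2 h RT + 16 h 37 C; PBS wash, 4% PFA; GFP count 488/509 nm.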

Row | SMILES | activity change, negative = inhibition | outcome
1 | O=c1cc(CSc2ncn[nH]2)[nH]c2c(Cl)cccc12 | inactive: 2.44% | –
2 | Cc1ccc2c(c1)N(C(=O)CCC(=O)Nc1ccccc1Cl)CC(C)O2 (stereo unspecified) | inactive: -19.9% | –
3 | Brc1ccccc1-n1ncc2c1ncn1nc(Cc3ccccc3)nc21 | – | inactive
4 | CCN(CC)c1ccc(C(=O)NCc2ccc3c(c2)CCN3C(=O)c2ccccc2)cc1 | inactive: 6% | –
5 | CCN1CCC(N(Cc2cccc(OC)c2)C(=O)Nc2cccc(C(F)(F)F)c2)CC1 | inactive: -19.8% | –
6 | O=C(Nc1ccc(-c2cc(C(F)(F)F)nn2-c2ccccc2)cc1)c1cccc(F)c1 | inactive: -4.6% | –
7 | CCOC(=O)c1c(NC(=O)c2cc(CC)on2)sc(C)c1C | inactive: 0.858% | –
8 | CC1CCCN(C(=O)Cn2c(=O)oc3cc(S(=O)(=O)N4CCCCC4)ccc32)C1 (stereo unspecified) | inactive: 6.69% | –
9 | CCOc1ccc(C2c3c(-c4ccc(C)cc4)n[nH]c3C(=O)N2c2ccc(Cl)cc2)cc1 (stereo unspecified) | – | inactive
10 | O=C(CSc1nnc(NC(=O)NC2CCCCC2)s1)Nc1ccccc1F | – | inactive
11 | CCOC(=O)c1c(C)[nH]c(C)c1S(=O)(=O)NCC(=O)Nc1cccc(C(F)(F)F)c1 | inactive: -17.2% | –
12 | CC1=C(C(=O)Nc2ccccc2C)C(c2cccnc2)n2nc(SCc3ccccc3)nc2N1 (stereo unspecified) | inactive: 0.492% | –
13 | COCCNC(=O)Cn1cc(S(=O)(=O)Cc2ccccc2Cl)c2ccccc21 | inactive: 5.02% | –
14 | CCOC(=O)N1CCc2c(sc3c2c(=O)n(CCc2ccccc2)c(=O)n3Cc2cc(C)ccc2C)C1 | inactive: 6.26% | –
15 | Cc1ccc(NC(=O)C(Cc2ccccc2)NS(=O)(=O)c2ccc3c(c2)oc(=O)n3C)c(Cl)c1 (stereo unspecified) | inactive: -0.451% | –
16 | COc1ccccc1NC(=O)c1cc(S(=O)(=O)N(C)C2CCCCC2)ccc1F | inactive: -6.5% | –
17 | Cc1ccc(-c2nnc(Nc3ccc(Br)cc3)c3ccccc23)cc1S(=O)(=O)N1CCOCC1 | inactive: -7.42% | –
18 | COc1ccc(-n2c(=O)c3sc4ccccc4c3n(CC(=O)Nc3cccc(C)c3)c2=O)cc1 | inactive: -6.15% | –
19 | CCN(CC)S(=O)(=O)c1ccc2c(c1)N(CC(=O)NCCc1ccc(OC)c(OC)c1)C(=O)CO2 | inactive: 8.06% | –
20 | COc1ccccc1NC(=O)C1=C(C)Nc2nc(SCc3ccccc3)nn2C1c1ccccn1 (stereo unspecified) | – | inactive
21 | CCOc1ccccc1NC(=O)c1cn(C2CCCC2)c(=O)c2c1c1ccccc1n2C | inactive: -18.9% | –
22 | COC(=O)c1c(NC(=O)c2cccc(OC)c2)sc2c1CCC(C(C)(C)C)C2 (stereo unspecified) | inactive: -9.07% | –
23 | COc1ccccc1CNc1nc2nc(C)c(Cl)c(C)n2n1 | inactive: 4.83% | –
24 | COc1cc(OC)c(Nc2nc3ccc(C)cc3n3nnnc23)cc1Cl | inactive: 6.4% | –

Row | SMILES | activity change, negative = inhibition | outcome
25 | COc1ccc(C(=O)Nc2ccccc2C(=O)OCc2cc(=O)n3c4c(sc3n2)CCCC4)cc1 | – | inactive
26 | COc1ccc(-c2cc(=O)n3[nH]cnc3n2)cc1 | inactive: -2.53% | –
27 | O=C(CCC(=O)N1CC2CCCN2c2ccccc21)NCc1ccccc1Cl (stereo unspecified) | inactive: -7.58% | –
28 | Cc1nc2c(c(C)c1CCC(=O)Nc1cccc(C(F)(F)F)c1)c(=O)n(C)c(=O)n2C | – | inactive
29 | CC1CCCN(S(=O)(=O)c2cc3c(cc2Cl)NC(=O)CO3)C1 (stereo unspecified) | inactive: 15.9% | –
30 | Cc1nnc(NC(=O)CSc2nccn2-c2cccc(Cl)c2)s1 | inactive: -6.84% | –
31 | Cc1ccc(NC(=O)N2CCC(N3CCN(Cc4ccccc4)C(=O)C3=O)CC2)cc1Cl | inactive: 0.969% | –
32 | COc1ccc(N2CCN(c3ccc(-c4nc(-c5ccccc5C)no4)cc3[N+](=O)[O-])CC2)cc1 | inactive: 3.82% | –
33 | Cc1cccc(-c2nc(SCC(=O)Nc3cc(C)on3)c3c(=O)n(C)c(=O)n(C)c3n2)c1 | inactive: 3.03% | –
34 | Cc1ccccc1CCNC(=O)c1ccc2c(c1)c(C)c(C)n2C | inactive: -1.11% | –
35 | CN(C)S(=O)(=O)c1ccc2c(c1)N(CC(=O)NCc1ccccc1)C(=O)C1CCCCN21 (stereo unspecified) | inactive: -0.82% | –
36 | COC(=O)c1cc2oc3ccccc3c2n1Cc1cccc(C)c1 | – | inactive
37 | Cc1ccc2oc(=O)c3cc(C(=O)N4CCN(c5ccccc5)CC4)sc3c2c1 | inactive: -10.4% | –
38 | CC(C)(C)[N+]([O-])=Cc1ccc(S(=O)(=O)O)cc1S(=O)(=O)O | inactive: -0.661% | –
39 | Cn1nnnc1SCCCNCc1ccc(-c2ccc(Br)cc2)o1 | inactive: -4.95% | –
40 | COc1ccccc1CNC(=O)CCn1c(=O)c2ccccc2n(CC(=O)Nc2ccc(C)cc2)c1=O | – | inactive
41 | Cc1cccc(CNC(=O)C2CCCN(S(=O)(=O)c3cn(C)cn3)C2)c1 (stereo unspecified) | inactive: -8.64% | –
42 | CCCCCn1c(=O)[nH]c2cc(C(=O)Nc3cc(OC)cc(OC)c3)ccc2c1=O | – | inactive
43 | Cc1nn(S(=O)(=O)c2ccc(C(C)C)cc2)c(C)c1S(=O)(=O)N1CCCCCC1 | – | inactive
44 | Cc1ccc(NC(=O)CSc2nc3ccccc3nc2Cc2ccccc2F)cc1F | inactive: 12.7% | –
45 | CCC1CN(C(=O)NCc2ccc(C)cc2)c2cc(C)ccc2O1 (stereo unspecified) | inactive: -2.85% | –
46 | CCCCCNC(=O)c1c[nH]c2ccc(S(=O)(=O)N3CCC(C)CC3)cc2c1=O | inactive: 3.12% | –
47 | CCc1ccccc1NC(=O)C1(S(=O)(=O)c2ccc(Cl)cc2)CC1 | inactive: -10.9% | –
48 | COc1ccc(-c2nsc(NC(=O)COc3ccc(C)c(C)c3)n2)cc1 | – | inactive

Row | SMILES | activity change, negative = inhibition | outcome
49 | CCOC(=O)c1c(C)oc2ncnc(Nc3ccc(F)cc3Cl)c12 | inactive: -6.67% | –
50 | Cc1cc(C)cc(NC(=O)CN2C(=O)CSc3ccc(S(=O)(=O)N(C)C)cc32)c1 | – | inactive
51 | Cc1ccc(C)c(N2CCN(C(=O)c3cc4ccc5cccnc5c4[nH]3)CC2)c1 | inactive: -23.1% | –
52 | COc1ccc(CNC(=O)c2cc3c(=O)[nH]c4ccc(C)cc4c3s2)c(OC)c1 | inactive: 3.18% | –
53 | COc1ccc(CCNC(=O)c2cc(-c3ccc(C)cc3)nc3n[nH]c(-c4ccccc4)c23)cc1OC | – | inactive
54 | COc1ccc(OC)c(NC(=O)CCn2cnnn2)c1 | inactive: -10.3% | –
55 | Cc1ccc(-c2nc3n(n2)C(c2ccccc2C)C=C(c2ccc(Cl)cc2)N3)cc1 (stereo unspecified) | – | inactive
56 | COc1cc(C(=O)NCC(c2ccc(N(C)C)cc2)N2CCc3ccccc32)cc(OC)c1OC (stereo unspecified) | inactive: 7.46% | –
57 | COc1ccccc1CNC(=O)CS(=O)(=O)c1cccc2nsnc12 | inactive: -9.2% | –
58 | Cc1ccc(CN2C(=O)c3ccccc3Sc3ccc(C(=O)NC4CCCCC4)cc32)cc1 | inactive: -8.54% | –
59 | COc1cc(C(=O)Nc2nnc(S(=O)(=O)N(C)c3ccccc3)s2)cc(OC)c1OC | – | inactive
60 | COc1ccc(-c2oc3ncn4nc(-c5cccc(C)c5)nc4c3c2-c2ccc(OC)cc2)cc1 | inactive: -4.18% | –
61 | COc1cc(CN(C(=O)COc2ccc(Br)cc2)c2ccccn2)cc(OC)c1OC | inactive: 3.96% | –
62 | COc1ccc(CNC(=O)C2CCN(c3nc4ccccc4[nH]3)CC2)c(OC)c1 | inactive: -0.586% | –
63 | CC(C)OC(=O)C1=CN(C(=O)c2ccc(F)c(F)c2)CC(C)(C)c2c1[nH]c1ccccc21 | inactive: -21.3% | –
64 | O=C(CSc1ncc(CO)n1Cc1ccccc1)Nc1nc2ccccc2s1 | inactive: 38.8% | –
65 | Cc1ccn2c(Nc3ccc(F)cc3)c(-c3ccc(C)o3)nc2c1 | inactive: -6.04% | –
66 | O=C(NC1CC(=O)N(c2ccc(F)cc2)C1)c1cccs1 (stereo unspecified) | inactive: -6.82% | –
67 | CC(=O)c1sc2c(c1C)c(=O)n(-c1ccc(Cl)cc1)c(=O)n2Cc1cc(=O)n2cc(Cl)ccc2n1 | inactive: -4.37% | –
68 | NC(=O)c1nnn(Cc2cc(Cl)c(C(=O)c3ccc(Cl)cc3)c(Cl)c2)c1N | inactive: -2.48% | –
69 | Cc1nn(C(=O)c2ccc(Cl)cc2)c(C)c1Sc1ccc(Cl)cc1 | inactive: 1.09% | –
70 | COc1cc2nc(SCc3ccc(Cl)cc3)n3nc(CCn4nc(C)cc4C)nc3c2cc1OC | – | inactive
71 | CCCCOc1ccc(OC(=O)c2sc3ncn(Cc4cccc(F)c4)c(=O)c3c2C)cc1 | inactive: -20.7% | –
72 | COC(=O)c1cccc(NC(=O)C2CCN(S(=O)(=O)Cc3ccccc3)CC2)c1C | inactive: -0.454% | –

Row | SMILES | activity change, negative = inhibition | outcome
73 | Cc1cc(NC(=O)CSc2nc(-c3ccccc3F)nc3c2c(=O)n(C)c(=O)n3C)no1 | inactive: 12.2% | –
74 | CCCSc1nc2sc3c(c2c(=O)n1-c1ccccc1)CCC(C)C3 (stereo unspecified) | inactive: 3.53% | –
75 | Cc1cc(O)c(C(c2ccccc2)N2CCC(C)CC2)c(=O)n1Cc1ccco1 (stereo unspecified) | – | inactive
76 | Cc1cccc(NC(=O)C2CCCN2S(=O)(=O)c2cccc3nsnc23)c1C (stereo unspecified) | – | inactive
77 | CCC1=C(c2ccc(C)cc2)S(=O)(=O)N=C1N1CCC(C(=O)Nc2ccccc2C(=O)OC)CC1 | inactive: 1.03% | –
78 | Cc1cn2c(=O)cc(COc3ccc(NC(=O)c4ccc(C(C)(C)C)cc4)cc3)nc2s1 | inactive: 3.56% | –
79 | COc1ccc(CNC(=O)CCc2c(C)nn(-c3ccc(N4CCOCC4)nn3)c2C)c(OC)c1 | – | inactive
80 | CN(C)c1ccc(C(CNC(=O)c2ccc(C(C)(C)C)cc2)N2CCCC2)cc1 (stereo unspecified) | – | inactive
81 | Cc1ccc(CCNC(=O)c2cc(-c3ccccc3)n[nH]2)cc1 | inactive: 8.01% | –
82 | CC(=O)c1ccc(NC(=O)CSc2nnc3ccc(-c4ccc(F)cc4)nn23)cc1 | inactive: -2.1% | –
83 | CCN(C(=O)c1sc2nc3n(c(=O)c2c1C)CCCC3)c1ccccc1F | inactive: -27.8% | –
84 | Cc1ccc(C)c(NC(=O)c2cnn(-c3ccc(F)cc3F)c2C2CCNCC2)c1 | inactive: 0.796% | –
85 | CC[C@H](CO)Nc1nc(NCc2ccccc2)c2ncn(C(C)C)c2n1 | inactive: 3.56% | –
86 | CCOC(=O)c1ccc(NC(=O)CN2C(=O)C(C)(C)c3ccccc32)cc1 | inactive: -10.7% | –
87 | O=C(CSc1ncc2c(n1)-c1ccccc1N(Cc1ccc(Cl)cc1)S2(=O)=O)c1ccc(Cl)cc1 | – | inactive
88 | Cc1ccc(Nc2ccc(N3CCN(C(=O)c4cccc([N+](=O)[O-])c4)CC3)nn2)cc1 | inactive: 2.71% | –
89 | COc1ccccc1NC(=O)CN(C)S(=O)(=O)c1cccc2cccnc12 | inactive: -0.256% | –
90 | Fc1ccccc1C(NCCc1ccc(Cl)cc1)c1nnc(-c2ccccc2)o1 (stereo unspecified) | inactive: 0.599% | –
91 | Cc1cccc(C)c1NC(=O)CCSc1nc(-c2ccc3c(c2)OCO3)cc(C(F)(F)F)n1 | – | inactive
92 | CCCC12CN3CC(CCC)(CN(C1)C3c1ccc(OCc3ccccc3)cc1)C2=O (stereo unspecified) | inactive: -1.79% | –
93 | CCC1CN(C(=O)N2CCC(C(=O)NCCCc3ccccc3)CC2)c2cc(C)ccc2O1 (stereo unspecified) | – | inactive
94 | COc1ccc(NS(=O)(=O)c2cc(-c3onc(C)c3C)ccc2C)c(OC)c1 | inactive: -0.344% | –
95 | Cc1ccc(CNC(=O)CN2Cc3ccccc3C2=O)cc1 | inactive: -6.98% | –
96 | Cc1ccccc1NC(=O)Cn1c(=O)n(CCC(=O)N2CCc3ccccc3C2)c(=O)c2ccccc21 | – | inactive
